Source: PubChem BioAssay AID1745853 (National Center for Advancing Translational Sciences (NCATS), 2022)
The list shows a part of the results. These are further read-outs of the screen, such as a control signal, another cell line or another target. No call is given for them.

Assays:
Assay in all cases: Primary Screen for Target Class Profiling of Small Molecule Inhibitors of Methyltransferases
[1] = target: Glycine N-methyltransferase (Homo sapiens) (UniProt Q14749); conditions: purified enzyme, MTase-Glo SAH luminescence; measured here: GNMT inhibition; at 40 µM; stronger effect = lower value
Summary of the method: (§1)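 Each enzyme was assayed with SAM and its substrate. SAH formation detected by MTase-Glo luminescence; single-point 40 uM screen[…].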

[2] = target: Guanidinoacetate N-methyltransferase (Homo sapiens) (UniProt Q14353); conditions: purified enzyme, MTase-Glo SAH luminescence; measured here: GAMT inhibition; at 40 µM; stronger effect = lower value
Summary of the method: as §1

[3] = target: Histamine N-methyltransferase (Homo sapiens) (UniProt P50135); conditions: purified enzyme, MTase-Glo SAH luminescence; measured here: HNMT inhibition; at 40 µM; stronger effect = lower value
Summary of the method: as §1

[4] = target: Nicotinamide N-methyltransferase (Homo sapiens) (UniProt P40261); conditions: purified enzyme, MTase-Glo SAH luminescence; measured here: NNMT inhibition; at 40 µM; stronger effect = lower value
Summary of the method: as §1

[5] = target: Phenylethanolamine N-methyltransferase (Homo sapiens) (UniProt P11086); conditions: purified enzyme, MTase-Glo SAH luminescence; measured here: PNMT inhibition; at 40 µM; stronger effect = lower value
Summary of the method: as §1
% is scaled to controls: 0 for no effect and ±100 for the full control effect.

SMILES | activity change, negative = inhibition [1] [%] | activity change, negative = inhibition [2] [%] | activity change, negative = inhibition [3] [%] | activity change, negative = inhibition [4] [%] | activity change, negative = inhibition [5] [%]
CO[C@H]1C(=O)N(C(C)C)[C@H]1C1CCN(S(=O)(=O)c2ccc3c(c2)CCC3)CC1 | -4.04 | -2.57 | 0.388 | -8.41 | 13.2
O=C(NCc1cccc(Cl)c1)c1cnc2c(c1)N(C(=O)Cc1ccc(O)cc1)CCC2 | -6.6 | -4.58 | -82 | -15.4 | -7.5
CNc1nc(C(=O)N2CCC3(CCC(=O)N(CC4CCCO4)C3)CC2)cs1 (stereo not given) | -1.34 | -1.24 | 1.57 | -6.28 | -8.63
CCOc1ccc(N2C(=O)c3cc4ccccc4n3CC2(C)C(=O)NCCC(C)C)cc1 (stereo not given) | 0.608 | 0 | 4.13 | 1.03 | -4.17
COC(=O)N(C)c1c(N)nc(-c2nn(Cc3ccccc3F)c3ncccc23)nc1N | 5.86 | 0.696 | 1.96 | -15.2 | -2.89
Cc1cc(C(=O)NCC2CCCN(Cc3nnc(-c4cccnc4)o3)C2)no1 (stereo not given) | -2.31 | -0.578 | -0.257 | -5.47 | -0.001
CCc1cc2c(cc3n2CC(C)(C(=O)NC2CCCCCC2)N(Cc2cccnc2)C3=O)s1 (stereo not given) | -9.58 | 0 | -2.35 | -22 | -2.66
CCn1nnnc1NCc1ccc(C(C)C)cc1 | 7.44 | 6.91 | 8.39 | -7.35 | 5.02
C=C[C@@]12COC(=O)C(=C)[C@@H]1[C@@H](O)[C@H](C(=C)C(=O)OC)[C@@H](O)C2 | 0.961 | -0.228 | 10.8 | -12.8 | -6.7
C=CCN1CCc2c(cc(O)c(O)c2Br)[C@@H](c2ccccc2)C1 | -40.4 | 4.68 | -40.9 | -8.76 | 2.86
CN(C)Cc1cn(C[C@H]2C[C@@H](NC(=O)Nc3ccc4c(c3)OCCO4)[C@H](O)[C@@H]2O)nn1 | -7.62 | -8.55 | -5.71 | -9.88 | -0.984
O=C(O)c1cnn(-c2nc3cc(OC(F)(F)F)c(Cl)cc3[nH]2)c1 | -8.61 | -3.73 | 7.79 | -12.3 | 4.5
O=C(O)c1ccc(CC2CCN(Cc3ccccn3)C2)cc1 (stereo not given) | -4.94 | -6.06 | -4.26 | -11.2 | -17.3
CCOCCCN1C(=O)c2cc(-c3ccc(C(C)C)cc3)nn2CC1(C)C(=O)NC1CCCCC1 (stereo not given) | -13.4 | 3.99 | -0.928 | -9.78 | -1.34
CCn1ncc(CN2CCC3(CCC3OC)CC2)c1C (stereo not given) | 1.65 | -1.15 | 0.048 | 1.06 | -3.19
N#Cc1ccccc1CN1CCNc2nc(CNCc3ccccc3)n(Cc3ccccc3)c2C1=O | -6.32 | 0.721 | -9.86 | -2.09 | 1.98
CC(C)CCNC(=O)C1(C)Cn2nc(C(=O)NC3CCCCC3)cc2C(=O)N1C (stereo not given) | 7.79 | 0.763 | 9.81 | 10.1 | 5.84
COCCNC(=O)c1cc(N2CCOCC2)cc2c1OCCN2C | -5.69 | -7.23 | -1.11 | -16.3 | -15.8
Cc1ccc(Cn2nc3n(CC(C)C)c(=O)c4ccc(C(=O)NC5CCCC5)cc4n3c2=O)cc1 | 1.82 | 2.58 | 4.38 | -0.506 | -0.248
CCOCCCN1C(=O)c2ccc(-c3ccco3)n2CC1(C)C(=O)NC1CCCCCCC1 (stereo not given) | -7.84 | -3.13 | -1.68 | -10.8 | -4.76

SMILES | activity change, negative = inhibition [1] [%] | activity change, negative = inhibition [2] [%] | activity change, negative = inhibition [3] [%] | activity change, negative = inhibition [4] [%] | activity change, negative = inhibition [5] [%]
CCN(CCCNC(=O)CCCc1nnc2n3nc(-c4ccccc4)nc3c3ccccc3n12)c1ccccc1 | -10.6 | 1.04 | -19.9 | -5.02 | -10.6
Cc1cccc(C(=O)Nc2c(N3CCCCC3)c(-c3cccc(F)c3)nn2C)c1 | 4.22 | 1.86 | 1.36 | -0.145 | -23.5
CC(C)NC[C@H]1O[C@@H](CO)[C@@H](O)[C@H]1N1CCN(C)CC1 | -2.28 | -2.48 | -0.826 | -7.56 | -3.93
Cc1ccccc1NC(=O)Cn1nc2n(C)c(=O)c3ccc(C(=O)NC4CCCCC4)cc3n2c1=O | -0.106 | 0.195 | 0.28 | -3.61 | -4.07
O=C(C1CC(c2ccc(F)cc2)=NO1)N1CCN(c2ccc(F)cc2)CC1 (stereo not given) | -2.68 | 2.68 | -7.87 | -1.01 | -10.3
CCCn1c(=O)c2ccc(C(=O)NC(C)CC)cc2n2c(=O)n(CC(=O)Nc3ccccc3CC)nc12 (stereo not given) | -3.42 | -3.24 | -0.471 | -4.12 | -5.46
CC1(C(=O)NC2CCCCCC2)Cc2ccccc2C(=O)N1CCc1ccccc1 (stereo not given) | 3.04 | 1.3 | 9.08 | 1.81 | 2.93
COC(=O)c1ccccc1C(=O)N1CCNC(=O)C1Cc1ccccc1 (stereo not given) | -1.2 | -0.181 | -0.922 | -0.765 | -21.8
O=C(CCn1ccc2cc(S(=O)(=O)N3CCCCC3)ccc21)NCc1ccc2c(c1)OCO2 | 1.32 | 0 | -0.363 | -4.68 | 1.48
CC(C)CCn1c(=O)c2ccc(C(=O)NC3CCCC3)cc2n2c(=O)n(CC(=O)NC3CCCC3)nc12 | 0.158 | 0.975 | 1.26 | -4.33 | -6.24
NC(=O)C1CCN(C(=O)[C@H]2C[C@@H](O)[C@H](O)[C@@H]3N=C(Nc4cccc(C(F)(F)F)c4)S[C@@H]32)CC1 | -1.97 | -2.27 | 0.531 | -6.61 | -2.01
CC(C)(C)c1ccc(-c2nc3ccccc3[nH]2)cc1 | -48.1 | -69 | -41.6 | -71.9 | -65.5
CC(C)CNC(=O)c1ccc2c(=O)n(CC(C)C)c3nn(Cc4ccccc4Cl)c(=O)n3c2c1 | 1.53 | 0 | 2.65 | -0.49 | 2.77
C=Cc1ccc(Cn2nc3n(C)c(=O)c4ccc(C(=O)NC5CCCC5)cc4n3c2=O)cc1 | -0.829 | 1.67 | 8.98 | -1.45 | 1.65
CCC[C@H]1CN(C(=O)CCc2ccccc2C)C[C@@H]1N | -8.43 | -13.2 | -6.57 | -19.4 | -14.6
CCOC(=O)C12CC1/C(=N/O)c1ccccc1O2 (stereo not given) | -6.08 | 4.88 | -2.07 | -3.58 | 6.11
Cc1ccc(CN2C(=O)c3ccc(-c4ccco4)n3CC2(C)C(=O)NCc2ccc(Cl)cc2)cc1 (stereo not given) | -5.91 | -36.7 | 0.831 | -12.4 | -4
Cc1cccc(-c2n[nH]n3c2nc(=O)c2ccc(C(=O)NC4CCCCC4)cc23)c1 | -3.36 | 0.53 | -5.6 | -3.14 | -4.59
COC(=O)C1=CO[C@@H](O[C@@H]2O[C@H](CO)[C@@H](O)[C@H](O)[C@H]2O)[C@@H]2[C@@](C)(O)[C@@H](OC(=O)/C=C/c3ccc(O)cc3)C[C@]12O | -1.87 | 1.25 | 10.8 | -12.7 | -7.13
